B1: TPP-8988: anti-CD123 antibody; heavy chain SEQ ID NO: 79, light chain SEQ ID NO: 80 (antibody)
heavy: EVQLLESGGGLVQPGGSLRLSCAVSDYSITSGYYWNWIRQAPGKKLEWMGYISYDGSNNYNPSLKNGRITISRDTSKNTFYLQMNSLRAEDTAVYYCARGEGFYFDSWGQGTLVTVSS[human IgG1 constant region left out here]
light: EIVLTQSPGTLSLSPGERATLSCKSSQSLFFGSTQKNYLAWYQQKPGQAPRLLIYWASTRESGIPDRFSGSGSGTDFTLTISRLEPEDFAVYYCQQYYNYPWTFGQGTKLEIKRTVAAPSVFIFPPSDEQLKSGTASVVCLLNNFYPREAKVQWKVDNALQSGNSQESVTEQDSKDSTYSLSSTLTLSKADYEKHKVYACEVTHQGLSSPVTKSFNRGEC
modifications: Antibody Sequence
B2: TPP-6013: anti-CD123 antibody, a chimeric variant of 12F1; heavy chain SEQ ID NO: 29, light chain SEQ ID NO: 30 (antibody)
heavy: QVQLQESGPGLVKPSQSLSLTCSVTDYSITSGYYWNWIRQFPGNKLEWMGYISYDGSNNYNPSLKNRISITRDTSKNQFFLKLSSVTTEDTATYYCSRGEGFYFDSWGQGTTLTVSS[human IgG1 constant region left out here]
light: DIMMSQSPSSLAVSVGEKFTMTCKSSQSLFFGSTQKNYLAWYQQKPGQSPKLLIYWASTRESGVPDRFTGSGSGTDFTLAISSVMPEDLAVYYCQQYYNYPWTFGGGTKLEIKRTVAAPSVFIFPPSDEQLKSGTASVVCLLNNFYPREAKVQWKVDNALQSGNSQESVTEQDSKDSTYSLSSTLTLSKADYEKHKVYACEVTHQGLSSPVTKSFNRGEC
modifications: Antibody Sequence

System: target-positive cells
Test: Co-localization assay of the anti-CD123 antibodies with lysosomes
Format: cell-based
Settings: CypHer5E-labelled antibody 20 μg/ml, lysosomes stained with CytoPainter LysoGreen
Protocol: Owing to the linker, the active metabolite of the antibody-drug conjugate is generated by lysosomal degradation. Accordingly, intracellular trafficking after internalization has taken place is of essential importance. Studies about the co-localization of the antibody using labels specific for the lysosomal organelle (e.g. surface molecules or small GTPases) allow the selection of antibodies having the desired profile. To this end, target-positive cells (5×10^4/well) in a total volume of 100 μl were sown into a 96-MTP (Greiner bio-one, CELLSTAR, 650 180, U-bottom). Following addition of the CypHer5E-labelled anti-target antibody (final concentration 20 μg/ml), the batches (duplicates per point in time) were incubated at 37° C. for 30 min, 2 h and 6 h in an incubator (5% CO2). 30 min prior to the end of the chosen incubation time, the lysosome-specific label was added to the batches to be examined. The lysosomes were stained with CytoPainter LysoGreen indicator reagent (final concentration 1:2000; abcam, ab176826). After incubation, 200 μl of ice-cold FACS buffer (DULBECCO'S PBS, Sigma-Aldrich, No. D8537+3% FBS heat inactivated FBS, Gibco, No. 10500-064) were added and the cell suspension was centrifuged at 400×g and 4° C. for 5 min. […] Co-localization was evaluated using a special software (co-localization software IDEAS Application v6.1).

Molecule | Co-localization [%]
B1 | 41
B2 | 43
